Test results reported in patent US20060058336A1, “Pharmaceutical composition for treatment of drug dependence” (priority 2003, published 2006).

Tested on: wild-type mice
Assay: Ethanol CPP test in wild-type mice
Details: donepezil 1 mg/kg 20 min before 20% (v/v) ethanol 10 ml/kg i.p., 3 days, P<0.05 vs saline, FIG. 7

COc1cc2c(cc1OC)C(=O)C(CC1CCN(Cc3ccccc3)CC1)C2 (stereo not shown) [donepezil]
ethanol-induced CPP: significantly reduced
